cAMP reporter score and surface expression score data for 32 variants are collected here from the GPR68 mutational scans of Howard et al. (2025).

First the molecules themselves.
B1: GPR68, Q15743 (parent)
chain: MGNITADNSSMSCTIDHTIHQTLAPVVYVTVLVVGFPANCLSLYFGYLQIKARNELGVYLCNLTVADLFYICSLPFWLQYVLQHDNWSHGDLSCQVCGILLYENIYISVGFLCCISVDRYLAVAHPFRFHQFRTLKAAVGVSVVIWAKELLTSIYFLMHEEVIEDENQHRVCFEHYPIQAWQRAINYYRFLVGFLFPICLLLASYQGILRAVRRSHGTQKSRKDQIQRLVLSTVVIFLACFLPYHVLLLVRSVWEASCDFAKGVFNAYHFSLLLTSFNCVADPVLYCFVSETTHRDLARLRGACLAFLTCSRTGRAREAYPLGAPEASGKSGAQGEEPELLTKLHPAFQTPNSPGSGGFPTGRLA

In data set [1] the parent is B1. In words: cAMP reporter score (Enrich2 score, wild type = 0); higher = more signal; HEK293T, FACS bins.
In data set [2] the parent is B1. Nature of the data set: surface expression score (Enrich2 score, wild type = 0); higher = more signal; HEK293T, FACS bins.

Scores with a large standard error are left out. Not listed are two conditions whose scores span a narrow range. Names with del lack the residues named; names with ins carry added residues between the positions named. For some of these results: How much ogerin was present is not stated here.

Consider I105del, for which the cAMP reporter score in data set [1] (pH 5.5) was -0.482; in data set [1] (pH 6) it was 0.2; in data set [1] (pH 6, modulator: ogerin), -1.49; in data set [1] (pH 6.5, modulator: ogerin), -0.602. The surface expression score in data set [2] was -2.
G110_L112del: the cAMP reporter score is -1.73 in data set [1] (pH 5.5); -0.802 in data set [1] (pH 6); -1.86 in data set [1] (pH 6.5, modulator: ogerin). The surface expression score in data set [2] is -3.54.
For the variant S116A, the cAMP reporter score amounted to 1.98 in data set [1] (pH 5.5); 3.31 in data set [1] (pH 6); 1.34 in data set [1] (pH 6, modulator: ogerin); 3.18 in data set [1] (pH 6.5, modulator: ogerin). Also, the surface expression score in data set [2] came out at 1.92.
For the variant S116F, the cAMP reporter score was -1.07 in data set [1] (pH 5.5); -0.779 in data set [1] (pH 6); -1.37 in data set [1] (pH 6, modulator: ogerin); -0.832 in data set [1] (pH 6.5, modulator: ogerin).
For S116D, the cAMP reporter score in data set [1] (pH 5.5) is -1.77; in data set [1] (pH 6), -1.09; in data set [1] (pH 6, modulator: ogerin), -1.98; in data set [1] (pH 6.5, modulator: ogerin), -1.8. For the same variant, the surface expression score in data set [2] was -3.18.
As to S116H, the cAMP reporter score is 0.143 in data set [1] (pH 5.5); -0.104 in data set [1] (pH 6); -0.224 in data set [1] (pH 6.5, modulator: ogerin).
Consider S116C, for which the cAMP reporter score in data set [1] (pH 5.5) was -0.361; in data set [1] (pH 6), -0.207; in data set [1] (pH 6.5, modulator: ogerin), -1.19. In data set [2], the surface expression score worked out at 1.9.
With S116G, the cAMP reporter score is 0.077 in data set [1] (pH 5.5); -0.914 in data set [1] (pH 6); -0.521 in data set [1] (pH 6, modulator: ogerin); 0.309 in data set [1] (pH 6.5, modulator: ogerin). For the same variant, the surface expression score in data set [2] is 0.426.
As for S116E, the cAMP reporter score in data set [1] (pH 5.5) is -0.428; in data set [1] (pH 6), 0.063; in data set [1] (pH 6, modulator: ogerin), -0.67. Moreover, the surface expression score in data set [2] is -0.392.
In the case of S116I, the cAMP reporter score in data set [1] (pH 5.5) was -1.66; in data set [1] (pH 6) it was -1.25; in data set [1] (pH 6, modulator: ogerin), -1.75; in data set [1] (pH 6.5, modulator: ogerin), -1.72. Further, the surface expression score in data set [2] is -1.57.
With F111_C113del, the cAMP reporter score was -1.31 in data set [1] (pH 5.5); -1.08 in data set [1] (pH 6, modulator: ogerin); -1.51 in data set [1] (pH 6.5, modulator: ogerin). The surface expression score in data set [2] is -2.73.
As to G110_F111del, the cAMP reporter score in data set [1] (pH 5.5) was -1.98; in data set [1] (pH 6) it was -1.22; in data set [1] (pH 6, modulator: ogerin), -1.65; in data set [1] (pH 6.5, modulator: ogerin) it was -0.772. The surface expression score in data set [2] is -2.36.
Turning to C114_I115del, the cAMP reporter score is -1.01 in data set [1] (pH 5.5); -1.64 in data set [1] (pH 6); -1.43 in data set [1] (pH 6, modulator: ogerin); -0.821 in data set [1] (pH 6.5, modulator: ogerin). The surface expression score in data set [2] is -1.71.
For the variant I105V, the cAMP reporter score in data set [1] (pH 5.5) was -0.472; in data set [1] (pH 6), -0.492; in data set [1] (pH 6, modulator: ogerin) it was -0.919; in data set [1] (pH 6.5, modulator: ogerin) it was -0.969. In addition, the surface expression score in data set [2] is -0.635.
On to I105M, for which the cAMP reporter score in data set [1] (pH 5.5) is -0.131; in data set [1] (pH 6) it was 0.405; in data set [1] (pH 6, modulator: ogerin), -0.462; in data set [1] (pH 6.5, modulator: ogerin) it was 0.751. The surface expression score in data set [2] is -0.255.
Taken in the same sequence, the figures for I105W were -0.417, -0.506, -0.473, -0.941 and -2.07.
In the same order, the values of I105T are -0.505, -0.275, -0.96, -0.677 and -1.03.
As to I105S, the cAMP reporter score in data set [1] (pH 5.5) was 0.043; in data set [1] (pH 6, modulator: ogerin), -1.77.
Regarding C113P, the cAMP reporter score in data set [1] (pH 5.5) is -1.59; in data set [1] (pH 6) it was -0.557; in data set [1] (pH 6, modulator: ogerin), -1.56; in data set [1] (pH 6.5, modulator: ogerin), -1.27. The surface expression score in data set [2] was -2.1.
Taken in the same sequence, the figures for C113D were -1.73, -0.094, -0.507, -2.03 and -3.19.
C113T: the cAMP reporter score in data set [1] (pH 5.5) is 1.07; in data set [1] (pH 6, modulator: ogerin) it was -0.415; in data set [1] (pH 6.5, modulator: ogerin) it was -0.429. Besides, the surface expression score in data set [2] is -0.375.
Turning to C113I, the cAMP reporter score was 0.608 in data set [1] (pH 5.5); -0.127 in data set [1] (pH 6); -1.69 in data set [1] (pH 6, modulator: ogerin); -0.331 in data set [1] (pH 6.5, modulator: ogerin). In data set [2], the surface expression score was -2.04.
Taken in the same sequence, the figures for C113F were -0.31, -1.17, -1.14, -1.5 and -2.28.
Take C113M: the cAMP reporter score was 0.733 in data set [1] (pH 5.5); 1.43 in data set [1] (pH 6); 0.716 in data set [1] (pH 6, modulator: ogerin); -0.197 in data set [1] (pH 6.5, modulator: ogerin). For the same variant, the surface expression score in data set [2] is -1.45.
On to C113L, for which the cAMP reporter score in data set [1] (pH 5.5) is 0.663; in data set [1] (pH 6), -0.368; in data set [1] (pH 6, modulator: ogerin) it was 0.132; in data set [1] (pH 6.5, modulator: ogerin), -1.04. Further, the surface expression score in data set [2] was -1.58.
C113V: the cAMP reporter score in data set [1] (pH 5.5) was -0.394; in data set [1] (pH 6, modulator: ogerin) it was 0.034; in data set [1] (pH 6.5, modulator: ogerin) it was -0.59. Moreover, in data set [2], the surface expression score was -1.01.
As to C113K, the cAMP reporter score in data set [1] (pH 5.5) was -1.23; in data set [1] (pH 6), -1.44; in data set [1] (pH 6, modulator: ogerin) it was -1.3; in data set [1] (pH 6.5, modulator: ogerin), -1.19. The surface expression score in data set [2] was -2.98.
For C113G, the cAMP reporter score was -0.061 in data set [1] (pH 5.5); -0.936 in data set [1] (pH 6, modulator: ogerin); -0.788 in data set [1] (pH 6.5, modulator: ogerin). Besides, the surface expression score in data set [2] is -0.556.
For the variant C113H, the cAMP reporter score in data set [1] (pH 5.5) was -1.72; in data set [1] (pH 6), -1.51; in data set [1] (pH 6, modulator: ogerin) it was -1.74; in data set [1] (pH 6.5, modulator: ogerin), -1.59. Moreover, the surface expression score in data set [2] is -2.78.
Taken in the same sequence, the figures for C113Y were -1.23, -0.283, -1.63, -1.71 and -1.76.
Turning to C113N, the cAMP reporter score in data set [1] (pH 5.5) was -0.838; in data set [1] (pH 6), -0.395; in data set [1] (pH 6, modulator: ogerin), -1.2; in data set [1] (pH 6.5, modulator: ogerin), -1.97. The surface expression score in data set [2] was -1.14.
In the case of C113R, the cAMP reporter score in data set [1] (pH 5.5) was -1.78; in data set [1] (pH 6, modulator: ogerin), -1.04. In data set [2], the surface expression score was -2.2.
